The name of at least one read-out is uncertain.
Test system: P. aeruginosa strain PAM1723 overexpressing MexAB-OprM
Experiment: Checkerboard assay: potentiation of in vitro antibacterial activity of levofloxacin by efflux pump inhibitors
Assay type: cell-based
Conditions: PAM1723, MHB, 20 h at 35° C.; for MPC8: lowest inhibitor concentration giving antibacterial activity with levofloxacin at 1/8 of its MIC; for MPC32: lowest inhibitor concentration giving antibacterial activity with levofloxacin at 1/32 of its MIC
Method: EPI activity was recorded as concentration of an EPI compound that is necessary to increase susceptibility to levofloxacin of the strain of P. aeruginosa, PAM1723, overexpressing the MexAB-OprM efflux pump eight-fold. The levofloxacin potentiating activity of the test compounds was assessed by the checkerboard assay (Antimicrobial Combinations, Antibiotics in Laboratory Medicine, Ed. Victor Lorian, M.D., Fourth edition, 1996, pp 333-338, which is incorporated herein by reference in its entirety) using a broth microdilution method performed as recommended by the NCCLS (National Committee for Clinical Laboratory Standards (NCCLS), 1997, Methods for Dilution of Antimicrobial Susceptibility Tests for Bacteria That Grow Aerobically, Fourth Edition; Approved Standard. NCCLS Document M7-A4, Vol 17 No. 2, which is incorporated herein by reference in its entirety). In this assay, multiple dilutions of two drugs, namely an EPI and levofloxacin, were tested, alone and in combination, at concentrations equal to, above and below their respective minimal inhibitory concentrations (MICs). All EPI compounds were readily soluble in water and stock solutions were prepared at a final concentration of 10 mg/ml. Stock solutions were further diluted, according to the needs of the particular assay, in Mueller Hinton Broth (MHB). Stock solution was stored at −80° C.
The checkerboard assay was performed in microtiter plates. Levofloxacin was diluted in the x-axis, each column containing a single concentration of levofloxacin. EPIs were diluted in the y-axis, each row containing a single concentration of an EPI. The result of these manipulations was that each well of the microtiter plate contained a unique combination of concentrations of the two agents. The assay was performed in MHB with a final bacterial inoculum of 5×105 CFU/ml (from an early-log phase culture). Microtiter plates were incubated during 20 h at 35° C. and were read using a microtiterplate reader (Molecular Devices) at 650 nm as well as visual observation using a microtiter plate-reading mirror.
In the experiment depicted in Table 1, potentiating activities of selected inhibitors are reported as Minimum Potentiating Concentration MPC8 values (or MPC32) which correspond to the lowest concentration of the inhibitor required to achieve antibacterial activity in combination with the concentration of levofloxacin equal to ⅛ (or 1/32) of the levofloxacin concentration required to achieve the same antibacterial effect alone (MIC of levofloxacin).

SMILES | MPC8 [µg/mL] | MPC32 [µg/mL]
C[N+](C)(CCN)CCC[C@@H](N)C(=O)N[C@H](CCc1ccccc1)C(=O)Nc1cnc2ccccc2c1 [Compound 1, 3-[(2R)-2-[(4R)-1-N-(2-azaniumylethyl)-4-formamido-1-N,1-N-dimethylbutane-1,4-bis(aminium)]-4-phenylbutanamido]quinolin-1-ium tetrachloride] | 2.5 | 10
C[N+](C)(CCN)CCC[C@H](N)C(=O)N[C@@H](CCc1ccccc1)C(=O)Nc1cnc2ccccc2c1 [Compound 2, 3-[(2S)-2-[(4S)-1-N-(2-azaniumylethyl)-4-formamido-1-N,1-N-dimethylbutane-1,4-bis(aminium)]-4-phenylbutanamido]quinolin-1-ium tetrachloride] | 5 | 10
C[N+](C)(CCN)CCC[C@H](N)C(=O)N[C@H](CCc1ccccc1)C(=O)Nc1cnc2ccccc2c1 [Compound 4, 3-[(2S)-2-[(4R)-1-N-(2-azaniumylethyl)-4-formamido-1-N,1-N-dimethylbutane-1,4-bis(aminium)]-4-phenylbutanamido]quinolin-1-ium tetrachloride] | 2.5 | 5
C[N+](C)(CCN)CCC[C@H](N)C(=O)N[C@H](CCc1ccccc1)C(=O)Nc1ccc(F)c(F)c1F [Compound 5, [(4S)-4-azaniumyl-4-{[(1R)-3-phenyl-1-[(2,3,4-trifluorophenyl)carbamoyl]propyl]carbamoyl}butyl](2-azaniumylethyl)dimethylazanium trichloride] | 5 | >10
C[N+](C)(CCN)CCC[C@H](N)C(=O)N[C@H](CCc1ccccc1)C(=O)Nc1ccc(-c2ccccc2)cc1.Cl.Cl.[Cl-] [Compound 6, [(4S)-4-azaniumyl-4-{[(1R)-3-phenyl-1-[(4-phenylphenyl)carbamoyl]propyl]carbamoyl}butyl](2-azaniumylethyl)dimethylazanium trichloride] | 1.25 | 1.25
C[N+](CCN)(CCN)CCC[C@H](N)C(=O)N[C@H](Cc1ccc(C(F)(F)F)cc1)C(=O)Nc1cnc2ccccc2c1 [Compound 10, 3-[(2R)-2-[(4S)-1-N,1-N-bis(2-azaniumylethyl)-4-formamido-1-N-methylbutane-1,4-bis(aminium)]-3-[4-(trifluoromethyl)phenyl]propanamido]quinolin-1-ium pentachloride] | 0.156 | 0.156
C[N+](CCN)(CCN)CCC[C@H](N)C(=O)N[C@@H](Cc1ccc(C(F)(F)F)cc1)C(=O)Nc1cnc2ccccc2c1 [Compound 11, 3-[(2R)-2-[(4R)-1-N,1-N-bis(2-azaniumylethyl)-4-formamido-1-N-methylbutane-1,4-bis(aminium)]-3-[4-(trifluoromethyl)phenyl]propanamido]quinolin-1-ium pentachloride] | 0.156 | 0.312
C[N+](CCN)(CCN)CCC[C@H](N)C(=O)N[C@@H](Cc1ccc(OC(F)(F)F)cc1)C(=O)Nc1cnc2ccccc2c1 [Compound 21, 3-[(2S)-2-[(4S)-1-N,1-N-bis(2-azaniumylethyl)-4-formamido-1-N-methylbutane-1,4-bis(aminium)]-3-[4-(trifluoromethoxy)phenyl]propanamido]quinolin-1-ium pentachloride] | 0.156 | 0.156
C[N+](CCN)(CCN)CCC[C@H](N)C(=O)N[C@@H](CC1CCCCC1)C(=O)Nc1cnc2ccccc2c1.Cl.Cl.Cl.Cl.[Cl-] [Compound 25, 3-[(2S)-2-[(4S)-1-N,1-N-bis(2-azaniumylethyl)-4-formamido-1-N-methylbutane-1,4-bis(aminium)]-3-cyclohexylpropanamido]quinolin-1-ium pentachloride] | 0.312 | 0.625
C[N+](CCN)(CCN)CCC[C@H](N)C(=O)N[C@H](C(=O)Nc1cnc2ccccc2c1)c1ccc2ccccc2c1 [Compound 26, 3-[(2S)-2-[(4S)-1-N,1-N-bis(2-azaniumylethyl)-4-formamido-1-N-methylbutane-1,4-bis(aminium)]-2-(naphthalen-2-yl)acetamido]quinolin-1-ium pentachloride] | 0.312 | 0.625
C[N+](CCN)(CCN)CCC[C@H](N)C(=O)N[C@H](CCc1ccccc1)C(=O)Nc1cnc2ccccc2c1 [Compound 27, 3-[(2R)-2-[(4S)-1-N,1-N-bis(2-azaniumylethyl)-4-formamido-1-N-methylbutane-1,4-bis(aminium)]-4-phenylbutanamido]quinolin-1-ium pentachloride] | 0.156 | 0.312
C[N+](CCN)(CCN)CCC[C@H](N)C(=O)N[C@@H](CCc1ccccc1)C(=O)Nc1cnc2ccccc2c1.Cl.Cl.[Cl-] [Compound 29, 3-[(2S)-2-[(4S)-1-N,1-N-bis(2-azaniumylethyl)-4-formamido-1-N-methylbutane-1,4-bis(aminium)]-4-phenylbutanamido]quinolin-1-ium pentachloride] | 0.312 | 0.625
C[N+](CCN)(CCN)CCC[C@H](N)C(=O)N[C@H](CCc1ccc(C(F)(F)F)cc1)C(=O)Nc1cnc2ccccc2c1 [Compound 33, 3-[(2R)-2-[(4S)-1-N,1-N-bis(2-azaniumylethyl)-4-formamido-1-N-methylbutane-1,4-bis(aminium)]-4-[4-(trifluoromethyl)phenyl]butanamido]quinolin-1-ium pentachloride] | 0.156 | 0.156
C[N+](CCN)(CCN)CCC[C@H](N)C(=O)N[C@H](CCc1ccc(C(F)(F)F)cc1)C(=O)Nc1cnc2ccc(F)cc2c1 [Compound 34, 3-[(2R)-2-[(4S)-1-N,1-N-bis(2-azaniumylethyl)-4-formamido-1-N-methylbutane-1,4-bis(aminium)]-4-[4-(trifluoromethyl)phenyl]butanamido]-6-fluoroquinolin-1-ium pentachloride] | 0.312 | 0.312
C[N+](CCN)(CCN)CCC[C@H](N)C(=O)N[C@@H](CCC1CCCCC1)C(=O)Nc1cnc2ccccc2c1 [Compound 38, 3-[(2S)-2-[(4S)-1-N,1-N-bis(2-azaniumylethyl)-4-formamido-1-N-methylbutane-1,4-bis(aminium)]-4-cyclohexylbutanamido]quinolin-1-ium pentachloride] | 1.25 | 1.25
C[C@@H](N)C(=O)N[C@@H](CCC[N+](C)(CCN)CCN)C(=O)N[C@@H](Cc1ccc(C(F)(F)F)cc1)C(=O)Nc1cnc2ccccc2c1 [Compound 44, 3-[(2S)-2-[(4S)—N,N-bis(2-azaniumylethyl)-4-formamido-4-[(1R)-1-formamidoethan-1-aminium]-N-methylbutan-1-aminium]-3-[4-(trifluoromethyl)phenyl]propanamido]quinolin-1-ium pentachloride] | 0.625 | 1.25
C[N+](CCN)(CCN)CCC[C@H](N)C(=O)N[C@H](CCc1ccc(C(F)(F)F)cc1)C(=O)Nc1ccc2ncccc2c1 [Compound 46, 6-[(2R)-2-[(4S)-1-N,1-N-bis(2-azaniumylethyl)-4-formamido-1-N-methylbutane-1,4-bis(aminium)]-4-[4-(trifluoromethyl)phenyl]butanamido]quinolin-1-ium pentachloride] | 0.312 | 0.625
